Data: PMC4336329 (PLoS ONE, 2015)
About 2,200 (0.71%) of roughly 310,000 compounds showed an effect of 50% or more. Effects have a minus sign here. Some of the results follow.

Target: human ether-à-go-go-related gene (hERG) potassium channel (human, UniProt Q12809)
Experiment: primary screen, population patch clamp on CHO cells stably expressing hERG

Sequence of human ether-à-go-go-related gene (hERG) potassium channel (Q12809 whole entry, looked up): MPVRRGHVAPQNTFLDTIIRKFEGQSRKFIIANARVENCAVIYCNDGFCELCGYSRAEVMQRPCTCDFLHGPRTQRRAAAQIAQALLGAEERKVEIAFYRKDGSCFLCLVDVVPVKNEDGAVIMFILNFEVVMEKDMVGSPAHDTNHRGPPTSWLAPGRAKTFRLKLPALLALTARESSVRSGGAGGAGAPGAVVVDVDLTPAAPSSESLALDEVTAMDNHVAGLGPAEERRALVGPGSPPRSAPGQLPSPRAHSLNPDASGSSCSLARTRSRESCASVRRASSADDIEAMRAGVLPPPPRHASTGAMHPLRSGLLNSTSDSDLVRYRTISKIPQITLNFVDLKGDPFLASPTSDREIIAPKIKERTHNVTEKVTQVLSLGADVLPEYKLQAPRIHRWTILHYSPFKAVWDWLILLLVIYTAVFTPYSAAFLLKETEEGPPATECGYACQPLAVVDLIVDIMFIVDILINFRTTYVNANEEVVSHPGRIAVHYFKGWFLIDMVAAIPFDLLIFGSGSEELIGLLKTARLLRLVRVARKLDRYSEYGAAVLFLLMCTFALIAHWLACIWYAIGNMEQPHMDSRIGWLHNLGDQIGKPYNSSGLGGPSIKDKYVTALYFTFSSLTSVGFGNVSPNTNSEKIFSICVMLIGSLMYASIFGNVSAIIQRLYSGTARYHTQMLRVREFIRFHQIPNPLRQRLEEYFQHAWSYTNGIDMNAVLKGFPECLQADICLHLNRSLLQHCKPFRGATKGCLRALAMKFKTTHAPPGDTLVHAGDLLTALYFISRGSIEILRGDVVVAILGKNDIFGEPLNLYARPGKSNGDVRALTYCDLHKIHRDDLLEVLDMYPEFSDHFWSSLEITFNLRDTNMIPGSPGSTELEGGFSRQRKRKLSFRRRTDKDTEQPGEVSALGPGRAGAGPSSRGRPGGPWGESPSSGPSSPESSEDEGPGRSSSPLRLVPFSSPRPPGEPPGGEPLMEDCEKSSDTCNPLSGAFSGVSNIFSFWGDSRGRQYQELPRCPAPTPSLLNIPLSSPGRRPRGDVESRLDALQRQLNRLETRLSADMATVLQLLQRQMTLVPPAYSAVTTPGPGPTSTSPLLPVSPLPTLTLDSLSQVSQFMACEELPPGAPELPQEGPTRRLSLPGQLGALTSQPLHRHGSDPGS

Row | SMILES | hERG current change (%, negative = inhibition) at 1uM [%]
1 | CS(=O)(=O)N(CC(=O)Nc1ccccc1-c1ccccc1)c1ccccc1 | 16.1
2 | CCCCC(=O)NC(=S)Nc1ccc(S(=O)(=O)N2CCCC2)cc1 | -2.76
3 | Cc1c(NC(=O)C(C)NCC2CCCO2)c(=O)n(-c2ccccc2)n1C (stereo not shown) | 10.5
4 | COc1ccc(NC2=Nc3cccc4cccc2c34)cc1OC | 10.8
5 | Cc1cccc(NC(=O)C2CCC(CNC(=O)[C@@H]3Cc4ccccc4CN3)CC2)c1 (stereo partly shown) | 11.2
6 | O=C(N/N=C/c1cccc(F)c1)c1c(O)c2ccccc2[nH]c1=O | 12.8
7 | CCCCN(CC)C(=O)c1n[nH]c(=O)c2ccccc12 | 2.17
8 | COc1ccccc1C(=O)NCCC(=O)Nc1ccc(S(=O)(=O)N2CCC(C)CC2)cc1 | 7.93
9 | COc1ccc(NC(=O)c2cc(-c3ccco3)nc3ccccc23)cc1 | 12.1
10 | Cc1cc(C)nc(/N=C(\N)Nc2ccccc2-c2ccccc2)n1 | -12.7
11 | O=C(O)CC/C(=N\Nc1ccc([N+](=O)[O-])cc1)c1ccccc1 | 16.5
12 | Cc1cccc2sc(NC(=O)CN(C)S(=O)(=O)c3cccs3)nc12 | 4.9
13 | CCOc1ccc(C(=O)NCC(=O)Nc2ncccc2C)cc1OCC | 15.4
14 | COCc1cc(C)nc(N2CCOCC2)c1C#N | 9.51
15 | COc1ccc(NS(=O)(=O)c2cccc(C(=O)NCC3(N4CCOCC4)CCCCC3)c2)cc1 | 11
16 | CCc1ccccc1OCC(=O)OCC(=O)c1c(N)n(C)c(=O)n(C)c1=O | 0.475
17 | Cn1cccc1/C=C1\SC(=S)N(CC(=O)O)C1=O | 10.6
18 | COc1cccc(COc2ccc3ccc(=O)oc3c2)c1 | 10.6
19 | O=C(NCCCSc1ccccc1)c1cccnc1 | 0.92
20 | COc1ccc(NC(=O)CCOc2ccccc2)c(OC)c1 | -5.98
21 | CCCCOc1ccc(CN2CCSCC2)cc1 | 15.2
22 | Cn1nc(C(=O)NNC(=O)c2ccc(Cl)c(S(N)(=O)=O)c2)c2ccccc2c1=O | 13.2
23 | COc1cc2c(C(=O)N3CCN(Cc4ccc5c(c4)OCO5)CC3)cn(C)c(=O)c2cc1OC | -6.06

Row | SMILES | hERG current change (%, negative = inhibition) at 1uM [%]
24 | Cc1ccc(C)c(OCC(=O)NNC(=O)c2ccc(NC(=O)C3CC3)cc2)c1 | 9.74
25 | COc1cc(OC)c(N(C)S(=O)(=O)c2cccc(C(=O)Nc3nc(C)cs3)c2)cc1Cl | 9.21
26 | Cc1onc(-c2ccccc2)c1C(=O)NC(=S)NNC(=O)c1cccnc1 | 8.33
27 | COc1cc(C(=O)O)nc(OC)n1 | 13.8
28 | Cc1ccc(CN2CCN(Cc3cn(C)nc3-c3ccccc3)CC2CCO)o1 (stereo not shown) | 10.6
29 | COc1ccc(-n2nc3c(=O)[nH][nH]c3cc2=O)cc1 | 8.95
30 | On1nnc2ccc3ccccc3c21 | 10.9
31 | COc1cc(CN(C(=S)NCC(=O)NC2CCCC2)C2CCCC2)cc(OC)c1OC | 2.16
32 | O=C(C[n+]1ccccc1)N/N=C/c1cccc(Cl)c1Cl.[Cl-] | 10.7
33 | NC(Cc1c[nH]c2ccccc12)C(=O)NCc1ccco1 (stereo not shown) | 3.41
34 | CC(=O)NC1(C(Cl)(Cl)Cl)Oc2ccccc2O1 | 12.6
35 | NC(=S)Nc1cccc2cc3ccccc3cc12 | 0.594
36 | CC(C)(C)c1cc(-c2n[nH]c(=S)n2-c2ccccc2F)n[nH]1 | 14
37 | Oc1ccccc1-[n+]1c(-c2ccccc2)cc(-c2ccccc2)cc1-c1ccccc1.[O-][Cl+3]([O-])([O-])[O-] | -40.5
38 | O=C(CSc1nnc(CCc2ccccc2)n1-c1ccc(Cl)cc1)c1ccccc1 | 3.15
39 | Cn1c(=O)c2c(nc(N3CCN(c4ccccn4)CC3)n2Cc2ccccc2Cl)n(C)c1=O | -18.2
40 | CC1CC(C(F)(F)F)n2nc(C(=O)O)cc2N1 (stereo not shown) | -2.59
41 | COC(=O)C1=C(c2ccc(OCc3ccccc3)cc2)C[C@@H]2CC[C@H]1N2C(=O)NCc1ccccc1 | 5.59
42 | Cn1cc(C(=O)c2cccc(Cl)c2Cl)cc1C#N | 6.32
43 | CCOC(=O)N1CCN(C(=O)CNCc2cccs2)CC1.O=C(O)C(=O)O | 7.8
44 | Cc1ccccc1NC(=S)N/N=C/c1ccc(O)cc1O | 8.9
45 | Cc1ccc(CN2CCN(Cc3cccn3-c3nccs3)CC2CCO)cc1 (stereo not shown) | -79.7
46 | COc1ccc(-c2nnc(SCC(=O)Nc3ccc(C)cc3)n2C)cc1 | 8.11

Row | SMILES | hERG current change (%, negative = inhibition) at 1uM [%]
47 | O=C(CN(Cc1ccccc1F)S(=O)(=O)c1ccc(Cl)cc1)NCC1CCCO1 (stereo not shown) | 5.49
48 | Cc1ccc2oc(C(=O)NCc3ccc4c(c3)OCO4)c(C)c2c1 | 1.24
49 | COc1ccc(Cl)cc1N1C(=O)C2CCCN2C1c1sccc1C (stereo not shown) | 7.3
50 | CCCCSc1ccc2nc(-c3ccc(C#N)cc3)cn2c1 | 4.18
51 | COC(=O)C1=C(c2cccc(OC)c2OC)C[C@@H]2CC[C@H]1N2C(=O)NCCCOC(C)C | 7.28
52 | COc1cc2c(cc1OC)C(C1C(=O)CC(C)(C)CC1=O)N(C(=O)CCl)CC2 (stereo not shown) | -1.17
53 | CCN1CCN(c2cc(C)c3cc(NC(=S)NCCCN4CCc5ccccc5C4)ccc3n2)CC1 | 9.86
54 | CCc1cccc(C)c1NC(=O)N(C)C1CCCCC1 | 10.6
55 | CC(=O)OC(C(=O)N1CCOCC1)c1c(F)cccc1F (stereo not shown) | 17
56 | CC(C)c1ccc(NC(=O)CN(Cc2ccccc2)S(C)(=O)=O)cc1 | -5.31
57 | O=C(CSc1n[nH]c(=O)n1C1CC1)Nc1ccccc1 | 17.8
58 | CN1CCN(C(=S)c2ccc([N+](=O)[O-])cc2)CC1 | 16.3
59 | O=C(C1CCN(C2CCN(C/C=C/c3ccccc3)CC2)CC1)N1CCOCC1 | -8.37
60 | O=C(Nc1ccc(S(=O)(=O)N2CCOCC2)cc1)c1ccccc1 | 13.6
61 | O=C(O)C(C(=O)Oc1ccccc1)C(C(=O)O)C(=O)Oc1ccccc1 (stereo not shown) | 14.4
62 | Cc1cc(C)n(CCC(=O)Nc2ccc3c(c2)OCCO3)n1 | 15.4
63 | Br.CC(Oc1ccccc1)C(=O)NN1Cc2ccccc2C1=N (stereo not shown) | 21.9
64 | Cc1ccccc1OCCNc1cc(N2CCCCC2)ccc1[N+](=O)[O-] | -3.62
65 | C=CCOc1c(Br)cc(/C=N/O)cc1OCC | -1.88
66 | O=[N+]([O-])c1ccc(NNS(=O)(=O)c2cc(Cl)ccc2Cl)nc1 | -44.4
67 | O=C(/C=C/c1ccc(S(=O)(=O)N2CCOCC2)cc1)NCCCn1ccnc1 | 29.2
68 | O=S(=O)(c1ccc(S(=O)(=O)N2CCC3(CC2)OCCO3)cc1)N1CCCC1 | 5.54
69 | Cc1c(N=Cc2cc3c(cc2Cl)OCO3)c(=O)n(-c2ccccc2)n1C | 6.34

Row | SMILES | hERG current change (%, negative = inhibition) at 1uM [%]
70 | CC(C)N(c1nnc(N)s1)C(C)C | -2.87
71 | O=C(CC1C(=O)NCCN1C(=O)Nc1ccccc1)Nc1ccc2c(c1)OCCO2 (stereo not shown) | 0.971
72 | O=C(Nc1ccc(Cl)cn1)c1cccc2ccccc12 | 7.91
73 | COc1ccccc1N1CCN(C(CNS(C)(=O)=O)c2cccnc2)CC1 (stereo not shown) | 14.1
74 | Clc1ccc(Cn2cccc2C2=NCCO2)cc1 | 11
75 | CCOC(=O)C(=O)NCC(c1ccco1)S(=O)(=O)c1cccs1 (stereo not shown) | 3.44
76 | CC(=O)c1cccc(S(=O)(=O)Nc2cc(C(F)(F)F)ccc2N2CCOCC2)c1 | 16.4
77 | O=C(CSC1=NCCS1)N1CCc2ccccc21 | 2.29
78 | O=C(c1cc(C2CC2)on1)N1CCN(c2ccc(F)cc2)CC1 | -11
79 | Cc1ccc(CN2CCN(Cc3c(C)nn(-c4ccc(F)cc4)c3C)CC2CCO)o1 (stereo not shown) | 6.24
80 | O=C1CCN(C(=O)CCCn2c(=O)oc3ccccc32)CC1 | 16.8
81 | CCOc1ccc(S(=O)(=O)N(C)c2ccc(OCC(=O)NCc3ccco3)cc2)cc1 | 5.17
82 | Cc1[nH]c(=O)c(C#N)c2c1COC(C)(C)C2 | 13.8
83 | COc1ccc(CCc2nc(-c3cccs3)no2)cc1 | 5.28
84 | Cc1noc(NS(=O)(=O)c2ccc(N/C=C\C(=O)c3ccc(Br)cc3)cc2)c1C | 12.5
85 | Cc1ccc(SCc2cc(-c3ccc(Cl)cc3)on2)cc1 | 10.4
86 | O=C(CSc1ncccn1)N/N=C/c1ccccc1[N+](=O)[O-] | 13.8
87 | COc1ccc(C(=O)c2ccccc2)cc1Br | 10.7
88 | O=C(COC(=O)c1ccccn1)Nc1nccs1 | 13.1
89 | O=[N+]([O-])c1ccc2c(c1)ncn2-c1ccccc1 | 1.64
90 | O=S(=O)(c1cccs1)N1CCC2(CC1)OCCN2S(=O)(=O)c1ccccc1 | -3.94
91 | CC(C)(C)c1cc(CCC(=O)Nc2ccncc2)cc(C(C)(C)C)c1O | 10
